Data reported in a compilation of properties of binary mixtures (doi:10.1016/j.molliq.2021.116575).
The densities may have been worked out from excess volumes.

Assay: xn = mol fraction of the nth substance listed
Conditions: 101 kPa, x1 = 0.2

`C[P+](c1ccccc1)(c1ccccc1)c1ccccc1.[Br-]` + CC(=O)O showed a mass density (293.2 K) of 1244 kg/m3, a mass density (303.2 K) of 1237 kg/m3 and a mass density (308.2 K) of 1233 kg/m3. For the same compound, the mass density (313.2 K) was 1230 kg/m3, the mass density (318.2 K) was 1226 kg/m3 and the mass density (323.2 K) was 1223 kg/m3. It also gave a mass density (333.2 K) of 1216 kg/m3, a mass density (338.2 K) of 1212 kg/m3 and a mass density (343.2 K) of 1208 kg/m3. For the same compound, the mass density (348.2 K) was 1205 kg/m3 and the mass density (363.2 K) was 1194 kg/m3.
